Experimental data published in ChEMBL document CHEMBL4888484, “Replenishing the malaria drug discovery pipeline: Screening and hit evaluation of the MMV Hit Generation Library 1 (HGL1) against asexual blood stage Plasmodium falciparum ,using a nano luciferase reporter read-out” (2022).
In all, about 150,000 compounds went through this assay and about 540 (0.36%) showed an effect of 50% or more. This is one part of the list.

Test system: Plasmodium falciparum
Experiment: Primary screen in NF54 nanoGlo assay, in single point, at 2uM, 72h; a lower Z score goes with more inhibition
Type: functional, Erythrocyte
Settings: timepoint 72 hour

| Compound | % Inhibition | Z score |
| --- | --- | --- |
| CCc1ccc(-c2n[nH]c3c2C2(C(=O)O)CC(N3)c3cccc(OC)c3O2)cc1 (stereo unspecified) | -1% | 0.17 |
| OCC1(NCCc2ccccc2)CCCC1 | -9% | 1.16 |
| O=c1oc2ccccc2n1Cc1cn(CCC2=CCCCC2)nn1 | -17% | 1.77 |
| CC(C)(C)n1cnc(C(=O)N2C3CCC2C(CO)C3)n1 (stereo unspecified) | 2% | -0.33 |
| CCc1nc2ccccc2c(C(=O)N2CCN3CCC[C@H]3C2)c1C | 4% | -0.44 |
| O=C(NCC1CN2CCCCC2CO1)Nc1ccccn1 (stereo unspecified) | 7% | -1.13 |
| Cn1cc(CN2C[C@@H]3C[C@H](C2)c2ccc(-c4cncnc4)c(=O)n2C3)c2ccccc21 | -6% | 1 |
| CC#CCn1ncc(N2CCN(C)CC2)cc1=O | 0% | 0.04 |
| CC(C)CN(Cc1cccnc1)C1CN(C(=O)Cc2cccnc2)C1 | 5% | -1.03 |
| Cn1cc(C(=O)Nc2ccc(C(F)(F)F)cc2)c2cccnc21 | 9% | -0.88 |
| CC[C@]1(O)CCCN(C(=O)CN2CCCC2=O)C1 | -14% | 1.25 |
| C[C@H](C(=O)N1CCC(N(C(=O)C(F)(F)F)c2cccnc2)CC1)C1CC1 | 14% | -1.63 |
| COc1ccc(C[C@H](C)NC(=O)C(C)(C)N)cc1OC | -5% | 0.6 |
| CC(C)C(NCCC1OCCO1)C(O)c1ccccc1 (stereo unspecified) | 3% | -0.56 |
| O=C1C[C@]2(CCCNC2)Oc2ccccc21 | 10% | -1.42 |
| CC(Cn1cc(Br)cn1)N[C@H](CO)c1ccccc1 (stereo partly specified) | 6% | -0.82 |
| OC[C@H](Cc1c[nH]c2ccccc12)NC1CCC1 | -8% | 0.75 |
| Cc1[nH]c2ccccc2c1CCNCc1ccco1 | -14% | 2.65 |
| Cc1n[nH]c([C@@H]2CCN(C(=O)COc3ccccc3)CCN2CC2CCOCC2)n1 | -12% | 1.77 |
| N#Cc1ccc(N2CC3OCCN(Cc4ccccc4)C3C2)cn1 (stereo unspecified) | -8% | 0.88 |
| COc1ccccc1CNC(=O)C(Cl)(Cl)Cl | 8% | -0.96 |
| CCn1cc(CC(=O)N2CCN(Cc3nc(COC)no3)CC2)c2ccccc21 | 7% | -0.82 |

| Compound | % Inhibition | Z score |
| --- | --- | --- |
| CCC(C)N1CCC(N2CC(C)OC(C)C2)CC1 (stereo unspecified) | -5% | 0.67 |
| CN1C2CCC1CC(Oc1cccc(C(F)(F)F)n1)C2 (stereo unspecified) | 3% | -0.39 |
| CCN1CCN(C(=O)COc2ccc3nc4n(c(=O)c3c2)CCC4)CC1 | -15% | 1.56 |
| O[C@@]1(Cc2ccccc2)CN2CCC1CC2 | 35% | -1.04 |
| CN(C)c1ncc(CN2C[C@H](O)C3(CC3)C2)s1 | -18% | 1.96 |
| CC[C@H]1C=CCN1C(=O)Cn1nnnc1C1(NCc2ccccc2)CCCCC1 | 1% | -0.23 |
| CC(C)(C)OC(=O)C1CC2CCC1N2Cc1csc(CC(=O)Nc2ccccc2)n1 (stereo unspecified) | -6% | 1.11 |
| Cn1nc2n(c1=O)CCN(S(=O)(=O)c1ccc3[nH]c(=O)oc3c1)CC2 | -10% | 1.14 |
| CCCC1CCC(N[C@@H]2C=C[C@H](CO)C2)CC1 (stereo partly specified) | -7% | 0.9 |
| O=C(Cc1ccccc1)N1CCN([C@H](C(=O)N2CCc3ccccc3C2)C2CCCC2)CC1 | -5% | 0.44 |
| CC1(C)CC(NC2CCCC2(C)CO)C(C)(C)O1 (stereo unspecified) | -4% | 0.33 |
| COc1ccccc1CC(=O)N1CCCC[C@H](N2CCCC2)C1 | -9% | 1.21 |
| CC(O)CN1CCN(C(=O)Cc2ccncc2)C(C)C1 (stereo unspecified) | -3% | 0.41 |
| COC1COCCC1CC(=O)N1CCC(c2n[nH]c(=O)o2)CC1 (stereo unspecified) | -8% | 1.26 |
| C#CCN(C)C[C@H]1C[N@@]2CC[C@H]1C[C@@H]2CNS(=O)(=O)c1ccc(C)cc1 | 31% | -3.53 |
| Cc1ccc([C@H](C)n2cnc3cccc(F)c3c2=O)cn1 | 5% | -0.74 |
| O=C(c1ccc2ccccc2n1)N1CCC2(CC1)OCCO2 | -5% | 0.85 |
| Cn1ncc(Cl)c1C(=O)N1CCN2CCC[C@H]2C1 | 5% | -0.76 |
| CC(C)(C)N1C(=O)NC(=O)C2(Cc3ccccc3N3CCCC32)C1=O (stereo unspecified) | 32% | -3.66 |
| CC(C)C[C@H](CN)CC(=O)OCCC1CCCCO1 (stereo partly specified) | 9% | -1.69 |
| O=S(=O)(c1ccc(Cl)s1)N1C[C@H]1c1ccccc1 (stereo partly specified) | -3% | 0.51 |
